# Results reported in the supplement of paper PMC8728848.
# The other results are listed elsewhere or left out.
# Tests used:
# Experiment in all cases: glycan array binding signal (z-score within array); higher = stronger binding
# Settings in all cases: glycan notation: IUPAC condensed, linker removed
# [1] = target: Fuc(a1-2)Gal(b1-4)GlcNAc(b1-3)Gal(b1-4)GlcNAc(b1-2)Man(a1-3)[Fuc(a1-2)Gal(b1-4)GlcNAc(b1-3)Gal(b1-4)GlcNAc(b1-2)Man(a1-6)]Man(b1-4)GlcNAc(b1-4)GlcNAc
# In short: (§1)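 Arrays were curated from the Consortium for Functional Glycomics database, 3228 in total, and kept only where the protein sequence was available. Binding is expressed as a within-array Z-score. This score was averaged across arrays of the same protein sequence at different concentrations or buffers and across linkers, and negative values can be read as non-binding.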
# [2] = target: Fuc(a1-2)Gal(b1-4)GlcNAc(b1-3)Gal(b1-4)GlcNAc(b1-3)Gal(b1-4)GlcNAc
# In short: as §1
# [3] = target: Fuc(a1-2)Gal(b1-4)GlcNAc(b1-3)GalNAc
# In short: as §1
# [4] = target: Fuc(a1-2)Gal(b1-4)GlcNAc(b1-3)[Fuc(a1-2)Gal(b1-4)GlcNAc(b1-6)]GalNAc
# In short: as §1
# [5] = target: Fuc(a1-2)Gal(b1-4)GlcNAc(b1-3)[Fuc(a1-3)[Gal(b1-4)]GlcNAc(b1-6)]Gal(b1-4)Glc
# In short: as §1
# [6] = target: Fuc(a1-2)Gal(b1-4)GlcNAc(b1-6)GalNAc
# In short: as §1
# [7] = target: Fuc(a1-2)Gal(b1-4)GlcNAc6S
# In short: as §1
# [8] = target: Fuc(a1-2)Gal(b1-4)[Fuc(a1-3)]GlcNAc
# In short: as §1
# [9] = target: Fuc(a1-2)Gal(b1-4)[Fuc(a1-3)]GlcNAc(b1-2)Man(a1-3)[Fuc(a1-2)Gal(b1-4)[Fuc(a1-3)]GlcNAc(b1-2)Man(a1-6)]Man(b1-4)GlcNAc(b1-4)[Fuc(a1-6)]GlcNAc
# In short: as §1
# [10] = target: Fuc(a1-2)Gal(b1-4)[Fuc(a1-3)]GlcNAc(b1-2)[Fuc(a1-2)Gal(b1-4)[Fuc(a1-3)]GlcNAc(b1-4)]Man(a1-3)[Fuc(a1-2)Gal(b1-4)[Fuc(a1-3)]GlcNAc(b1-2)Man(a1-6)]Man(b1-4)GlcNAc(b1-4)GlcNAc
# In short: as §1
# [11] = target: Fuc(a1-2)Gal(b1-4)[Fuc(a1-3)]GlcNAc(b1-3)Gal(b1-4)[Fuc(a1-3)]GlcNAc
# In short: as §1
# [12] = target: Fuc(a1-2)Gal(b1-4)[Fuc(a1-3)]GlcNAc(b1-3)Gal(b1-4)[Fuc(a1-3)]GlcNAc(b1-3)Gal(b1-4)[Fuc(a1-3)]GlcNAc
# In short: as §1
# [13] = target: Fuc(a1-2)Gal(b1-4)[Fuc(a1-3)]GlcNAc(b1-3)GalNAc
# In short: as §1
# [14] = target: Fuc(a1-2)Gal(b1-4)[Fuc(a1-3)]GlcNAc(b1-3)[Neu5Ac(a2-6)Gal(b1-4)GlcNAc(b1-6)]Gal(b1-4)Glc
# In short: as §1
# [15] = target: Fuc(a1-2)Gal3S(b1-4)GlcNAc
# In short: as §1
# [16] = target: Fuc(a1-2)Gal6S(b1-3)GlcNAc
# In short: as §1
# [17] = target: Fuc(a1-2)Gal6S(b1-3)GlcNAc6S
# In short: as §1
# Fuc(a1-2)Gal6S(b1-4)Glc = target: Fuc(a1-2)Gal6S(b1-4)Glc
# In short: as §1
# [18] = target: Fuc(a1-2)Gal6S(b1-4)Glc6S
# In short: as §1
# Fuc(a1-2)[Gal(a1-3)]Gal = target: Fuc(a1-2)[Gal(a1-3)]Gal
# In short: as §1
# [19] = target: Fuc(a1-2)[Gal(a1-3)]Gal(b1-3)GalNAc
# In short: as §1
# [20] = target: Fuc(a1-2)[Gal(a1-3)]Gal(b1-3)GalNAc(b1-3)Gal(a1-4)Gal(b1-4)Glc
# In short: as §1
# [21] = target: Fuc(a1-2)[Gal(a1-3)]Gal(b1-3)GlcNAc
# In short: as §1
# [22] = target: Fuc(a1-2)[Gal(a1-3)]Gal(b1-3)GlcNAc(b1-2)Man(a1-3)[Fuc(a1-2)[Gal(a1-3)]Gal(b1-3)GlcNAc(b1-2)Man(a1-6)]Man(b1-4)GlcNAc(b1-4)GlcNAc
# In short: as §1
# [23] = target: Fuc(a1-2)[Gal(a1-3)]Gal(b1-3)GlcNAc(b1-2)Man(a1-3)[Fuc(a1-2)[Gal(a1-3)]Gal(b1-3)GlcNAc(b1-2)Man(a1-6)]Man(b1-4)GlcNAc(b1-4)[Fuc(a1-6)]GlcNAc
# In short: as §1
# [24] = target: Fuc(a1-2)[Gal(a1-3)]Gal(b1-3)GlcNAc(b1-3)GalNAc
# In short: as §1
# [25] = target: Fuc(a1-2)[Gal(a1-3)]Gal(b1-3)GlcNAc(b1-6)GalNAc
# In short: as §1
# [26] = target: Fuc(a1-2)[Gal(a1-3)]Gal(b1-4)Glc
# In short: as §1
# [27] = target: Fuc(a1-2)[Gal(a1-3)]Gal(b1-4)GlcNAc
# In short: as §1
# [28] = target: Fuc(a1-2)[Gal(a1-3)]Gal(b1-4)GlcNAc(b1-2)Man
# In short: as §1
binder,measurement,setting,value
"HA-11100 (Pseudomonas aeruginosa), Q02G51_PSEAB (protein) QFNPNEIKISQQGKTTLIDQSTQRAIINWKGFDVSADEAVRFNQPGVTSSTLNRVTAGQESVIAGRISAPGQVIIYNSNGVVFSGSAKVDVGSLITTTANISDEHFRQGKLIFDQPGNPDARIVNDGSISVAEKGLAAFVAPSVANNGVINARLGTVAMAAGNAATIDLYG",glycan array binding signal (z-score),[1],0.521
same,glycan array binding signal (z-score),[2],-0.353
same,glycan array binding signal (z-score),[3],0.035
same,glycan array binding signal (z-score),[4],-0.358
same,glycan array binding signal (z-score),[5],-0.349
same,glycan array binding signal (z-score),[6],-0.607
same,glycan array binding signal (z-score),[7],-0.279
same,glycan array binding signal (z-score),[8],-0.134
same,glycan array binding signal (z-score),[9],0.05
same,glycan array binding signal (z-score),[10],0.232
same,glycan array binding signal (z-score),[11],-0.345
same,glycan array binding signal (z-score),[12],-0.73
same,glycan array binding signal (z-score),[13],-0.111
same,glycan array binding signal (z-score),[14],-0.211
same,glycan array binding signal (z-score),[15],-0.046
same,glycan array binding signal (z-score),[16],-0.359
same,glycan array binding signal (z-score),[17],-0.046
same,glycan array binding signal (z-score),Fuc(a1-2)Gal6S(b1-4)Glc,-0.493
same,glycan array binding signal (z-score),[18],-0.212
same,glycan array binding signal (z-score),Fuc(a1-2)[Gal(a1-3)]Gal,-0.32
same,glycan array binding signal (z-score),[19],-0.312
same,glycan array binding signal (z-score),[20],-0.465
same,glycan array binding signal (z-score),[21],-0.203
same,glycan array binding signal (z-score),[22],7.81
same,glycan array binding signal (z-score),[23],-0.083
same,glycan array binding signal (z-score),[24],-0.638
same,glycan array binding signal (z-score),[25],-0.435
same,glycan array binding signal (z-score),[26],-0.312
same,glycan array binding signal (z-score),[27],-0.128
same,glycan array binding signal (z-score),[28],0.173
